In patent publication US20230265148A1 (HAINAN SIMCERE PHARMACEUTICAL, published 2023):

T1: human IL-2 receptor βγ dimer on CHO-K1 cells (CHO-K1 hIL-2R βγ 2E6) (human, UniProt P14784 27-551; P31785 23-369)
T1 construct: Full-length entries with signal peptides were cloned and expressed on CHO-K1 cells; also called CHO-K1 IL2R βγ
T1 sequence 1: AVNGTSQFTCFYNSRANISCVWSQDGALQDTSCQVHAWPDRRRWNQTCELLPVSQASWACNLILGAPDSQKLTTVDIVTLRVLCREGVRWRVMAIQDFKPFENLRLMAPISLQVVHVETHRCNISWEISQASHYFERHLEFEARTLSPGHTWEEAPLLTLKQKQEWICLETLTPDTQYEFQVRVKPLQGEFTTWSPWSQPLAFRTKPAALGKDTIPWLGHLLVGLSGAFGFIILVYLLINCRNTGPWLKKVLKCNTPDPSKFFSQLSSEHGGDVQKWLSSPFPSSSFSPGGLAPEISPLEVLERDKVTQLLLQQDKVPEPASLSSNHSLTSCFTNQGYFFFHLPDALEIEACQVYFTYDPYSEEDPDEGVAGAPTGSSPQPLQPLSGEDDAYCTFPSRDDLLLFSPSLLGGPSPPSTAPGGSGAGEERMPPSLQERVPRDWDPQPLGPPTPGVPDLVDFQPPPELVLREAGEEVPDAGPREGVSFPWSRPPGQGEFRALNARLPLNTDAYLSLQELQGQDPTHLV
T1 sequence 2: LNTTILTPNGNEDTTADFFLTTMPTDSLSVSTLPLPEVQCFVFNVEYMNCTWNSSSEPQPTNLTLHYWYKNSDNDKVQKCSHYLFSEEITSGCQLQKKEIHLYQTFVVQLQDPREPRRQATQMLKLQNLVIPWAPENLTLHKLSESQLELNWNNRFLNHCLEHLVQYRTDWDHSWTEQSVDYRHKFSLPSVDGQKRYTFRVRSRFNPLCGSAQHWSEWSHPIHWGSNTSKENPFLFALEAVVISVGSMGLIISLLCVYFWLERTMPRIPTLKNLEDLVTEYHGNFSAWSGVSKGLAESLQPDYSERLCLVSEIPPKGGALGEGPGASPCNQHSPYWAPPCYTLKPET

T2: human IL-2 receptor αβγ trimer on CHO-K1 cells (CHO-K1 hIL-2R αβγ 2D6) (human, UniProt P01589 22-272; P14784 27-551; P31785 23-369)
T2 construct: Full-length entries with signal peptides were cloned and expressed on CHO-K1 cells; also called CHO-K1 IL2R αβγ
T2 sequence 1: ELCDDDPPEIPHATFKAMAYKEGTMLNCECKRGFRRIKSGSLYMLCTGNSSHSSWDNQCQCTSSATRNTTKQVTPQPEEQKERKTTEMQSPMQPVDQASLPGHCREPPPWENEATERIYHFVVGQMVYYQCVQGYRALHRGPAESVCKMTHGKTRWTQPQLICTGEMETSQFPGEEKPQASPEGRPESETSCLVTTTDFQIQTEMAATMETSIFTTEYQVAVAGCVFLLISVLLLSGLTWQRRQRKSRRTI
T2 sequence 2: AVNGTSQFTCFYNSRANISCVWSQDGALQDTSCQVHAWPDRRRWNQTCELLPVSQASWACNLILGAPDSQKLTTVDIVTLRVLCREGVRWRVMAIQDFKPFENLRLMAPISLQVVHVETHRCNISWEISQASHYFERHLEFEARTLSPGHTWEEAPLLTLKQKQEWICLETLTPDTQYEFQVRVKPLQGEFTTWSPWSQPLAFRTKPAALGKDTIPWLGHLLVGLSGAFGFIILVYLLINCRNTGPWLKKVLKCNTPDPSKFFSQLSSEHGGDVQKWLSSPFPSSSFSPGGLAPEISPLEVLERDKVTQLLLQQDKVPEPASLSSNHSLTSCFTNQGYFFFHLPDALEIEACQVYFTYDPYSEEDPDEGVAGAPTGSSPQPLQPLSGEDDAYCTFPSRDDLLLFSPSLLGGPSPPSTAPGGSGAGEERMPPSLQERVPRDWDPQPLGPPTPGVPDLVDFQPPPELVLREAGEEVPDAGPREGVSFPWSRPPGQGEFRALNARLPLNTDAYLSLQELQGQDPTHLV
T2 sequence 3: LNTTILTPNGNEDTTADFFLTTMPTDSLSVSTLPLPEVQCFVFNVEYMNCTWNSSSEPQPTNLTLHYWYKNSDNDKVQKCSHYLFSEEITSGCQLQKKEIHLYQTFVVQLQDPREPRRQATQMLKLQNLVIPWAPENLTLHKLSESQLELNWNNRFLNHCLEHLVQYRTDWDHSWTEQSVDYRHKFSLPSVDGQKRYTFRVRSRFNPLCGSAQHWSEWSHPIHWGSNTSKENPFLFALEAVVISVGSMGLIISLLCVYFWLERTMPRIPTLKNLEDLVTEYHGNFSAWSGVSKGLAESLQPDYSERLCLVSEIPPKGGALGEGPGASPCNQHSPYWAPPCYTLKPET


Legend:
[1] = biological target: T1, human IL-2 receptor βγ dimer on CHO-K1 …; assay: FACS on CHO-K1 hIL-2R βγ 2E6 cells
Description: (§1) The medium was removed, followed by washing of the flask once with PBS buffer (purchased from Hyclone, Cat NO. SH30256.01). […] The cells were added into a U-shaped bottom 96-well FACS reaction plate at 70 μL per well and placed at 4° C. or on ice for later use. […] The plate was then washed twice with FACS buffer (PBS buffer containing 2% (w/w) bovine serum albumin). Fluorescence-labeled secondary antibody (purchased from Biolegend, Cat NO. 409306) was added into the plate at 100 μL per well and incubated on ice for 30 minutes. The plate was then washed twice with FACS buffer. Detection and analysis were performed by FACS (FACS Canto II, purchased from BD Company). Alternatively, the cells were suspended with 100 μL FACS buffer containing 2% (w/w) paraformaldehyde (purchased from DingGuo, Cat NO. AR-0211) and then stored at 4° C. until further FACS detection. 100 μL PBS buffer was added to each well before FACS detection. Detection and analysis was performed by FACS. The results are shown in FIG. 5A-FIG. 5D and Table 12-Table 13. […] The binding activity of IL-2 mutants to human IL-2 receptor βγ dimer on the cell surface was weaker than that of wild type IL-2. […] The MFI in the following tables is the average fluorescence intensity value of the detected cell populations.

[2] = biological target: T2, human IL-2 receptor αβγ trimer on …; assay: FACS on CHO-K1 hIL-2R αβγ 2D6 cells
Description: as §1

[3] = biological target: human IL-2 receptor βγ dimer on CHO-K1 cells (CHO-K1 hIL-2R βγ 2E6) (human) (UniProt P14784); assay: FACS on CHO-K1 hIL-2R βγ 2E6 cells

| Binder | MFI at 0.054 nM [1] | MFI at 0.161 nM [1] | MFI at 0.484 nM [1] | MFI at 1.452 nM [1] | MFI at 4.357 nM [1] | MFI at 13.072 nM [1] | MFI at 39.216 nM [1] | MFI at 117.65 nM [1] | MFI at 0.0003 nM [2] | MFI at 0.0015 nM [2] | MFI at 0.0075 nM [2] | MFI at 0.0376 nM [2] | MFI at 0.1882 nM [2] | MFI at 0.9412 nM [2] | MFI at 4.7059 nM [2] | MFI at 23.529 nM [2] | other results |
| --- | --- | --- | --- | --- | --- | --- | --- | --- | --- | --- | --- | --- | --- | --- | --- | --- | --- |
| mut61-linker2-hFc (H16E/V91R) (Fc fusion, Whole fusion protein) APTSSSTKKTQLQLEELLLDLQMILNGINNYKNPKLTRMLTFKFYMPKKATELKHLQCLEEELKPLEEVLNLAQSKNFHLRPRDLISNINRIVLELKGSETTFMCEYADETATIVEFLNRWITFAQSIISTLTGGGGSGGGGSGGGGS[here human IgG1 Fc with changes without letters] | 142 MFI | 148 MFI | 146 MFI | 145 MFI | 142 MFI | 142 MFI | 155 MFI | 169 MFI | 194 MFI | 224 MFI | 544 MFI | 2310 MFI | 9190 MFI | 16400 MFI | 18300 MFI | 23900 MFI |  |
| mut7.36-linker2-hFc (H16E/R120F) (Fc fusion, Whole fusion protein) APTSSSTKKTQLQLEELLLDLQMILNGINNYKNPKLTRMLTFKFYMPKKATELKHLQCLEEELKPLEEVLNLAQSKNFHLRPRDLISNINVIVLELKGSETTFMCEYADETATIVEFLNFWITFAQSIISTLTGGGGSGGGGSGGGGS[here human IgG1 Fc with changes without letters] | 153 MFI | 156 MFI | 165 MFI | 210 MFI | 250 MFI | 318 MFI | 438 MFI | 615 MFI | 171 MFI | 272 MFI | 570 MFI | 2420 MFI | 9610 MFI | 18100 MFI | 19600 MFI | 23900 MFI |  |
| mut7.66-linker2-hFc (H16E/P82L/R120F) (Fc fusion, Whole fusion protein) APTSSSTKKTQLQLEELLLDLQMILNGINNYKNPKLTRMLTFKFYMPKKATELKHLQCLEEELKPLEEVLNLAQSKNFHLRLRDLISNINVIVLELKGSETTFMCEYADETATIVEFLNFWITFAQSIISTLTGGGGSGGGGSGGGGS[here human IgG1 Fc with changes without letters] | 118 MFI | 124 MFI | 136 MFI | 157 MFI | 216 MFI | 357 MFI | 597 MFI | 905 MFI | 177 MFI | 227 MFI | 568 MFI | 2480 MFI | 7680 MFI | 9660 MFI | 11600 MFI | 15500 MFI |  |
| mut11.08-linker2-hFc (V91R/Y31V/A73L/H79Q) (Fc fusion, Whole fusion protein) APTSSSTKKTQLQLEHLLLDLQMILNGINNVKNPKLTRMLTFKFYMPKKATELKHLQCLEEELKPLEEVLNLLQSKNFQLRPRDLISNINRIVLELKGSETTFMCEYADETATIVEFLNRWITFAQSIISTLTGGGGSGGGGSGGGGS[here human IgG1 Fc with changes without letters] | 144 MFI | 160 MFI | 178 MFI | 232 MFI | 342 MFI | 447 MFI | 645 MFI | 854 MFI | 251 MFI | 268 MFI | 621 MFI | 2740 MFI | 8710 MFI | 14900 MFI | 17400 MFI | 22200 MFI |  |
| mut11.31-linker2-hFc (V91R/Q13L) (Fc fusion, Whole fusion protein) APTSSSTKKTQLLLEHLLLDLQMILNGINNYKNPKLTRMLTFKFYMPKKATELKHLQCLEEELKPLEEVLNLAQSKNFHLRPRDLISNINRIVLELKGSETTFMCEYADETATIVEFLNRWITFAQSIISTLTGGGGSGGGGSGGGGS[here human IgG1 Fc with changes without letters] | 115 MFI | 121 MFI | 134 MFI | 180 MFI | 285 MFI | 560 MFI | 950 MFI | 1320 MFI | 172 MFI | 214 MFI | 553 MFI | 2180 MFI | 7520 MFI | 9500 MFI | 10900 MFI | 13400 MFI |  |
| mut61.08-linker2-hFc (H16E/V91R/Y31V/A73L/H79Q) (Fc fusion, Whole fusion protein) APTSSSTKKTQLQLEELLLDLQMILNGINNVKNPKLTRMLTFKFYMPKKATELKHLQCLEEELKPLEEVLNLLQSKNFQLRPRDLISNINRIVLELKGSETTFMCEYADETATIVEFLNRWITFAQSIISTLTGGGGSGGGGSGGGGS[here human IgG1 Fc with changes without letters] |  |  |  |  |  |  |  |  | 190 MFI | 303 MFI | 575 MFI | 2130 MFI | 9560 MFI | 19000 MFI | 19700 MFI | 22600 MFI | MFI at 0.054 nM [3]: 141 MFI; MFI at 0.161 nM [3]: 146 MFI; MFI at 0.484 nM [3]: 144 MFI; MFI at 1.452 nM [3]: 157 MFI; MFI at 4.357 nM [3]: 144 MFI; MFI at 13.072 nM [3]: 144 MFI; MFI at 39.216 nM [3]: 163 MFI; MFI at 117.65 nM [3]: 164 MFI |
| mut61.46-linker2-hFc (H16E/V91R/L18I/I89L/V93I) (Fc fusion, Whole fusion protein) APTSSSTKKTQLQLEELILDLQMILNGINNYKNPKLTRMLTFKFYMPKKATELKHLQCLEEELKPLEEVLNLAQSKNFHLRPRDLISNLNRIILELKGSETTFMCEYADETATIVEFLNRWITFAQSIISTLTGGGGSGGGGSGGGGS[here human IgG1 Fc with changes without letters] | 134 MFI | 136 MFI | 133 MFI | 134 MFI | 131 MFI | 132 MFI | 159 MFI | 148 MFI | 186 MFI | 280 MFI | 521 MFI | 2380 MFI | 10100 MFI | 19400 MFI | 19700 MFI | 24200 MFI |  |
